According to PubChem BioAssay AID1508623 (National Center for Advancing Translational Sciences (NCATS), 2021):
Hit rate of the full screen: of about 48,000 compounds, about 450 (0.94%) were called active. Inconclusive results (about 19%) are left out. Calls follow the shape of the dose curve; as a rule, active = well fitted inhibition curve with a large enough effect; inconclusive = small, poorly fitted or top-dose-only effect; inactive = no such curve, though single readings can be large or run the other way. Some of the results follow.

Assay: Primary qHTS for Identification of Small Molecule Inhibitors of Huntingtin Promoter Activity; also: nearly all actives have a fitted effect of over 50% in size
Conditions: HEK293 HTT promoter firefly luciferase reporter (activity 0% = vehicle and -100% = no light), 24 h; series mostly up to 57.5 µM; activity change, negative = inhibition: at the top concentration
Outline: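 Luminescence was read after Dual-Glo reagent and a 10 min room-temperature incubation. Values were normalized to vehicle (0% activity) and zero RLU (-100% activity). Reporter HEK293 cells had been exposed to compounds (up to 57.5 uM final) for 24 h.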

Activity change, negative = inhibition, inactive:
CCC(=O)Nc1ccccc1-c1nc2ccccc2n(CC(=O)c2ccc(C)cc2)c1=O -1.74%
CSc1ncc(Cl)c(C(=O)Nc2c(C(=O)Nc3cccc(Cl)c3)oc3ccccc23)n1 -2.68%
COc1ccc(CNC(=O)CCCN2C(=O)COc3ccc(C)cc32)cc1 13%
COc1cccc(Cn2nnc3c(=O)[nH]c(C4CCN(C(=O)c5ccccc5Cl)CC4)nc32)c1 -21.4%
CC1=C(C(N)=O)C(c2ccccc2Br)n2ncnc2N1 (centres undefined) -5.71%
CC(C)(C)C(=O)Oc1ccc2c(c1)nc(NC(=O)c1cccc([N+](=O)[O-])c1)n2CCCO -3.09%
O=C(NCc1ccccc1Br)c1cnc2sc(N3CCCCCC3)nn2c1=O 11%
COc1ccc(-n2nc(C(=O)N3CCCC(C)C3)c3c4ccccc4n(C)c3c2=O)cc1Cl (centres undefined) 3.28%
CCOC(=O)c1ccc(NC(=O)CSc2c3c(nc4cc(Cl)ccc24)CCCC3)cc1 -4.6%
CCN(CC)c1nc2ccccc2nc1C(=O)Nc1cc(OC)c(OC)c(OC)c1 -24.4%
Cc1nn2c(C)c(C(=O)NCc3ccco3)cnc2c1-c1ccccc1 -18.6%
Cc1nn(C(=O)c2ccc(Cl)cc2)c(C)c1S(=O)(=O)N1CCCCCC1 -8.44%
Cc1ccc(N2CCn3c2nc2c3c(=O)n(CCCc3ccccc3)c(=O)n2C)cc1C 2.17%
COc1ccc(OCC(=O)NCC(c2ccc(OC)cc2)N2CCCCC2)cc1 (centres undefined) -18.6%
COc1ccc(C2C(C(=O)Nc3cccnc3)=C(C)Nc3nc(-c4ccccc4)nn32)cc1OC (centres undefined) -6.88%
O=c1[nH]c(=O)n(C2CCCCC2)c(O)c1C1=Nc2ccccc2SC(c2ccccc2)C1 (centres undefined) 28.1%
COc1ccccc1NC(=O)C1=C(C)Nc2nc(SCc3ccccc3Cl)nn2C1c1ccccn1 (centres undefined) -8.57%
CN(C)c1ccc(/C=C/c2noc(-c3ccccc3O)n2)cc1 -16.3%
CSc1ccc(CCNS(=O)(=O)c2ccc3c(c2)C(C)(C)C(=O)N3C)cc1 -32.4%
Cc1ccc(C(c2cccc(Br)c2)c2c(C)[nH]c3ccccc23)s1 (centres undefined) -0.466%
COc1cc(OC)cc(C(=O)N2CCN(C(=O)COc3ccccc3)CC2)c1 3.95%
O=c1c2ccccc2n2c(-c3ccc(Cl)cc3)nnc2n1CCc1ccccc1 -8.58%
COc1ccc(-c2nc(CSc3nnc(C)n4c3cc3occc34)c(C)o2)cc1OC -13.2%
CCc1ccc(-n2nc(C)c3c(C)cc(=O)n(CC(=O)Nc4ccc(C(C)=O)cc4)c32)cc1 -16.2%
CC(C)C(NS(=O)(=O)c1ccc2c(c1)oc(=O)n2C)C(=O)NCCc1ccccc1 (centres undefined) -15.2%
O=C(Cn1ncc2c3ccccc3n(Cc3ccc(F)cc3)c2c1=O)NCCC1=CCCCC1 -5.7%
Cc1ccc(C)c(CN2C(=O)c3ccccc3S(=O)(=O)c3ccc(C(=O)NCCCN4CCCC(C)C4)cc32)c1 (centres undefined) -20.9%
CCC(CC)c1nn2c(=O)cc(COc3ccc(NC(=O)c4ccc(C)cc4)cc3)nc2s1 -0.745%
Cc1nn(C(=O)c2ccc(Cl)cc2)c(C)c1S(=O)(=O)N1CCOCC1 -6.08%
Cc1cn2c(=O)cc(COC(=O)c3cccc(NC(=O)c4ccccc4Cl)c3)nc2s1 -23.2%
CCc1ccc(CNC(=O)CN2C(=O)CSc3c2c(C)nn3-c2ccccc2)cc1 -22.7%
Cc1ccc(CNc2ncnc3c2nnn3C)cc1 7.59%
COc1ccc(CCNC(=O)c2ccc3c(c2)N(Cc2cc(C)ccc2C)C(=O)c2ccccc2S3=O)cc1OC (centres undefined) -23.5%
COc1ccc(-c2nc(SCC(=O)N3CCN(c4ccc(F)cc4)CC3)n[nH]2)cc1 -4.06%
CCCCOc1ccc(CNC(=O)Cc2ccc(NC(=O)N3CCCCc4ccccc43)cc2)cc1 -14.6%
CCn1c(=O)n(-c2ccc(F)cc2)c(=O)c2sc3ccccc3c21 -5.49%
CC(C)(C)OC(=O)N1CCC(c2c(C(=O)N3CCN(c4ccccc4)CC3)cnn2-c2ccccc2)CC1 -4.82%
CC(=O)N1CCC2(CC1)OC(=O)C(C)=C2C(=O)Nc1cc(C)ccc1C -1.34%
CCCN(C(=O)c1cc2ccc3cccnc3c2[nH]1)c1ccc(F)cc1 34%
O=C(c1ccccc1Cl)N(Cc1ccco1)c1ccccn1 -7.03%
Cc1cc(Br)ccc1NC(=O)Cn1cnc2sc(C)c(S(=O)(=O)N3CCN(C)CC3)c2c1=O 7.02%
COC(=O)c1sc2cccc(F)c2c1S(=O)(=O)Nc1ccc(N(C)C)cc1 0%
CC(=O)Nc1ccc(-n2c(CCC(=O)O)ccc2-c2ccc(Br)cc2)cc1 -8.84%
COc1ccc(Cl)cc1NC(=O)Cn1c(=O)n(Cc2cccs2)c(=O)c2cccnc21 -15.7%
COc1ccc(CNC(=O)Cc2c(C)c3c(cc(C)c4c(C)coc43)oc2=O)cc1OC 1.33%
CC1=C(C(=O)O)N2C(=O)[C@@H](NC(=O)C(N)c3ccccc3)[C@H]2SC1 (some centres undefined) 2.11%
CCOC(=O)c1cc(-c2ccc(C)cc2)n(CC(=O)Nc2ccccc2F)c1C -15.2%
CCCC(=O)Nc1ccc(O)c(C(C)=O)c1 0.835%
COc1ccc(Br)c2c1-c1nc(NC(=O)c3ccccc3F)sc1C2 -13.4%
